Measurements published in the supplement of paper PMC3334620.
The full ranking holds about 33,000 sequences; the median of “E-score (-0.5 to 0.5)” is about -0.04, and the highest 2% start at about 0.36. The list shows a part of the results.

target: T1, Hmlalpha2 (UniProt P0CY09); test: PBM E-score (8-mer binding enrichment) (E-score (-0.5 to 0.5)); higher = stronger / more preferred TF binding; most listed sequences are background and not binding sites; settings: protein concentration: 200 nM; construct: GST-full length
T1 sequence: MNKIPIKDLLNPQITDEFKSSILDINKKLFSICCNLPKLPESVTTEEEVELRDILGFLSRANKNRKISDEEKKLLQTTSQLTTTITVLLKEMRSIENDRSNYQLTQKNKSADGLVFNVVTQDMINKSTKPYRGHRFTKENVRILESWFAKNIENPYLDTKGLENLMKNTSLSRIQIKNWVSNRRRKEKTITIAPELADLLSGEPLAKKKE
Protocol: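 Universal 'all 10-mer' protein binding microarrays (Agilent AMADID 015681) probed with GST-tagged S. cerevisiae TFs (full-length or DBD) made by in vitro transcription/translation (PURExpress), about 100-200 nM. Bound TF was detected with fluorescent anti-GST. Each ungapped 8-mer (which stands for itself and its reverse complement) is scored by the PBM enrichment score (E-score), a modified Wilcoxon-Mann-Whitney statistic from -0.5 to +0.5, computed with the Universal PBM Analysis Suite. Scale: above 0.35 generally sequence-specific binding.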

Row | Sequence | PBM E-score
1 | CAAATAAA | 0.0807
2 | CCCATGAC | -0.031
3 | AAGGTATT | 0.0101
4 | ACCGGATA | -0.0648
5 | AAAACGTT | 0.0264
6 | CAATAGTC | -0.121
7 | CTAATGAG | -0.145
8 | ATGTTACC | 0.317
9 | ATAGCACG | 0.161
10 | CCGCACGA | -0.0762
11 | AGTGCGCG | -0.259
12 | GTGATCAA | 0.0788
13 | AGCTCATA | -0.0273
14 | ACACAACT | 0.317
15 | AGGGAGCA | -0.421
16 | TTCGTAAA | 0.162
17 | AGCATTGA | -0.135
18 | CTGTAGGA | -0.0922
19 | AAGCACTT | -0.0352
20 | AGAGCCAC | -0.313
21 | AAGAGGCG | -0.144
22 | GCCTAGCC | -0.262
23 | CGTGACCA | -0.0936
24 | GCCCGTGA | -0.279
25 | GCGAGCCC | -0.244

Row | Sequence | PBM E-score
26 | AATAGTCG | -0.0552
27 | CCTAGATA | -0.309
28 | CGGTAACA | 0.269
29 | CTTTATGC | 0.00507
30 | GCGTTAAC | 0.379
31 | TTGTAAAA | 0.392
32 | ACATCGAG | 0.0614
33 | ACAGAAAT | 0.107
34 | TCGAAGAA | 0.0605
35 | CCCAGTAA | 0.0249
36 | ACCTGTAA | 0.108
37 | AGGCTCAT | -0.261
38 | ACCAGAAA | -0.00994
39 | CCCTCCAA | -0.277
40 | AAGTGCAT | 0.168
41 | ACTATCTG | -0.156
42 | AAGTTAGA | 0.178
43 | ACAAGGAG | 0.204
44 | ATTCGCAG | 0.0937
45 | ACAAGATG | 0.187
46 | CGAGATAG | -0.206
47 | CTTAAAAG | -0.143
48 | TAATCCGA | -0.00201
49 | CCATACAC | 0.145
50 | AGCGCGAG | -0.144

Row | Sequence | PBM E-score
51 | AAGCCACG | 0.0292
52 | AAATTGGC | -0.169
53 | AACGGCTG | -0.249
54 | GCCACACC | -0.0937
55 | ATCACGTA | 0.3
56 | ATTTGTAG | 0.14
57 | GCACGTCA | 0.047
58 | CCTACAAC | 0.212
59 | CATGTTAG | 0.422
60 | ATGATTTG | 0.0537
61 | AGCCGGCA | -0.27
62 | ATCTCAGG | -0.22
63 | AGAGCGAT | -0.256
64 | AGCCAACA | -0.00609
65 | ACCAAAGC | -0.121
66 | ACGCGTGC | 0.189
67 | AGGGTGGG | -0.158
68 | CACTTTGA | -0.122
69 | ACCCCTGC | -0.264
70 | GCAATGTA | 0.307
71 | CGAATTTA | 0.19
72 | GCATTGGC | -0.0488
73 | TAGGCATA | -0.107
74 | AAGCGCCT | -0.234
75 | GAGGGCCC | -0.353

Row | Sequence | PBM E-score
76 | TATTATGA | 0.161
77 | GCCTGCCC | -0.337
78 | AACCGCGG | -0.0547
79 | CTGAGTTA | 0.0212
80 | CGGGAGGC | -0.259
81 | ATTGGATC | -0.0631
82 | ACTAATCC | -0.0716
83 | TGGTACAA | 0.0747
84 | CTCACGAA | 0.0655
85 | AAATTGAA | 0.144
86 | AACTCGCA | 0.182
87 | GCACATTA | 0.196
88 | AGGAGGGG | -0.269
89 | ATATGGGA | -0.268
90 | CCTAGCCA | -0.135
91 | AAGAGAAC | 0.0282
92 | CAAAGAAG | 0.0771
93 | CCATGGAG | -0.261
94 | GACAGAAA | 0.0409
95 | AGCGGGTC | -0.237
96 | GACAGCAC | -0.0231
97 | AGGCAGGA | -0.197
98 | GTGCCGAA | -0.0943
99 | CGCAGCAG | -0.0222
100 | AAGAACAG | 0.137

Row | Sequence | PBM E-score
101 | CGAGAGTC | -0.358
102 | AGTTGTAC | 0.167
103 | AAGGAAAT | 0.0212
104 | CGGCTTAC | 0.102
105 | ATCTGTCC | -0.114
106 | ACTCCTCT | -0.232
107 | CTATTCTC | -0.192
108 | CATACTAA | 0.203
109 | CTGGGCAC | -0.338
110 | ACTGATAA | -0.015
111 | CCGACGTC | -0.18
112 | TAGAGATA | 0.0533
113 | ACACTTAA | 0.292
114 | AACCCCGT | -0.196
115 | ATGTAGGG | 0.0515
116 | ACTGGATA | 0.0773
117 | CTTGCTAC | 0.0587
118 | ACGTGGTC | 0.163
119 | AGTTAATG | 0.157
120 | ATTAATCC | 0.0267
121 | CCCACGCA | -0.0709
122 | TCTGCTAA | 0.0237
123 | AATAATAG | -0.0525
124 | GCCTACGC | 0.0424
125 | CTCGCAAC | 0.00749

Row | Sequence | PBM E-score
126 | CATCGCGC | -0.0632
127 | AAAGTATG | 0.0804
128 | CAAAAAAG | 0.114
129 | ACGTGGTA | 0.118
130 | CTTGACGA | -0.023
131 | GATACCAA | 0.0659
132 | TCGTTTCA | 0.00354
133 | CGAGTCGA | 0.0186
134 | CGGGAGAG | -0.224
135 | ACATTGCC | 0.112
136 | AGCGAATC | -0.0201
137 | GATACTCC | -0.165
138 | GCCTAGAC | -0.134
139 | AAACAGTC | -0.0603
140 | CAGTATAA | 0.00393
141 | CCCTGGAC | -0.149
142 | CACGACAG | 0.0992
143 | GCCTATTA | 0.0858
144 | AATTCTCC | -0.214
145 | CATGAACA | 0.287
146 | GCCACCCC | -0.243
147 | ACAGACGT | 0.181
148 | TGAAGTCA | -0.162
149 | CATTGATA | 0.0734
150 | CACATATA | 0.311

Row | Sequence | PBM E-score
151 | AAAACGAA | 0.171
152 | AGCCCGTC | -0.201
153 | AATATTGG | -0.0746
154 | CGGATGCC | 0.0226
155 | AATGGTTG | -0.0312
156 | AGTATGAG | -0.00587
157 | CAAACTCG | -0.197
158 | AGGCCGCG | -0.0312
159 | ATTCGCAC | -0.0989
160 | CGTTAGAC | -0.0783
161 | GATAGAGA | -0.247
162 | CAAATGAG | -0.0119
163 | GAACGGAA | -0.143
164 | ACCGGAAT | -0.208
165 | TATATAGA | 0.21
166 | AGGTGCGG | -0.0249
167 | AAGACAGA | 0.144
168 | AAACATTT | 0.213
169 | ATCGAAAG | -0.0356
170 | GGTGCACA | -0.193
171 | GTTCGAAC | 0.174
172 | ACGTGGCG | 0.108
